From the RNAGym collection of RNA variant scans (doi:10.7554/elife.90254)
The source gives no read counts; variants with many changes may rest on few reads.

B1: OR4K15 (parent)
chain: GUUAACGGUCAUAGGCCAUGGAAACUAGGAGCACCAUUUCGCUGCCAGUGAAGAAAUGAACAAAGAAAAUCUGGGCCAGGCAGGCAUCAAAAGAAAUAGUCUUGCGCUCAACCAGAAAGUCUGUAAUCAUUUUAAGGGUA

Variants of: B1
Experiment: self-cleavage, relative activity (ratio to wild type); higher = more cleavage; in vitro, sequencing; the parent is a self-cleaving ribozyme
Variant U43C A51G A55G A126G has a self-cleavage of 1.37. U43C A51G A59G A69G U139A showed a self-cleavage of 0.63. In the case of U43C A51G A59G A118G, the self-cleavage is reported as 1.05. For U43C A51U A60G A82G A110G, the self-cleavage was 0.05. With U43C A52C A59G C112U U130A the self-cleavage was 0.01. In the case of U43C A52G A64G, the self-cleavage is reported as 1.41. With U43C A54C A64G A111G the self-cleavage was 0.02. With U43C A54G A55G U122C the self-cleavage was 1.57. Variant U43C A54G A114U has a self-cleavage of 0.08. In the case of U43C A54G U127C, the self-cleavage is reported as 0.72. U43C A54U G84A U87A U131C showed a self-cleavage of 1.08. U43C A55G A56G A125G showed a self-cleavage of 0.75. Work on U43C A55G U100C A111G yielded a self-cleavage of 0.03. U43C A59C A116G A125G A140G gave a self-cleavage of 0.14. For U43C A59G A60G U102C, the self-cleavage was 1.76. U43C A59G A114G showed a self-cleavage of 0.12. For U43C A59U C77A, the self-cleavage was 0.61. Variant U43C A60G A68U C77U A125G U133A has a self-cleavage of 1.14. U43C A60G A95U gave a self-cleavage of 0.46. Variant U43C A60G U70C has a self-cleavage of 0.49. In the case of U43C A60G U102C A111G A116G U131C, the self-cleavage is reported as 0. For U43C A60U A78U, the self-cleavage was 0.26. U43C A64G A91G gave a self-cleavage of 1.02. In the case of U43C A64G U97G, the self-cleavage is reported as 2.03. For U43C A64G U120A, the self-cleavage was 2.12. Variant U43C A66G A67C A125G has a self-cleavage of 0.7. For U43C A66G U87C U120C, the self-cleavage was 1.97. Variant U43C A66U A114G has a self-cleavage of 0.48. U43C A67G A86G A90G showed a self-cleavage of 0.95. U43C A67G A94G U108C U133C U139A gave a self-cleavage of 0. Work on U43C A67G A110G yielded a self-cleavage of 0.18. U43C A68G A82G gave a self-cleavage of 0.37. U43C A68G A82G A89G U108C gave a self-cleavage of 0. Variant U43C A69C A98G has a self-cleavage of 0.33. Work on U43C A69G A78G U127G yielded a self-cleavage of 0.25. Variant U43C A69U U72G G83U G115A has a self-cleavage of 0.07. With U43C A86G A135G the self-cleavage was 1.11. U43C A89G U102A A110C gave a self-cleavage of 0.05. For U43C A90U A111G, the self-cleavage was 0.02. In the case of U43C A90U A117G, the self-cleavage is reported as 2.08. U43C A92G U102A C109U gave a self-cleavage of 0.03. Variant U43C A92G U120C has a self-cleavage of 0.68. For U43C A95G U97C, the self-cleavage was 0.23. Variant U43C A95G U131C has a self-cleavage of 2.55. U43C A96G A140U gave a self-cleavage of 0.92. U43C A96U A129U gave a self-cleavage of 1.25. Work on U43C A96U U97C yielded a self-cleavage of 1.42. Work on U43C A110G A125U yielded a self-cleavage of 0.14. U43C A110G A135U showed a self-cleavage of 0.17. Variant U43C A110G U139C has a self-cleavage of 0.16. Work on U43C A116G A117G yielded a self-cleavage of 0.7. U43C A125G A126G gave a self-cleavage of 0.08. Variant U43C C45A C77A A91G A110G has a self-cleavage of 0.15. In the case of U43C C45U G50A A69G U87A A129U, the self-cleavage is reported as 0.56. For U43C C61U G106A, the self-cleavage was 0. Work on U43C C61U U127A yielded a self-cleavage of 1.81. Work on U43C G44A A91G yielded a self-cleavage of 1.24. U43C G44A A94G U97A U127C showed a self-cleavage of 1.16. With U43C G44U A54U A63G U132C the self-cleavage was 1.77. Work on U43C G53U A55G yielded a self-cleavage of 0.87. In the case of U43C G53U A86G A114G, the self-cleavage is reported as 0.35. In the case of U43C G65U A78G, the self-cleavage is reported as 0.31. Variant U43C G73A A116U has a self-cleavage of 0.02. For U43C G73A U122C, the self-cleavage was 0.06. U43C G79A A94G U120A gave a self-cleavage of 0.11. U43C G84A A125G showed a self-cleavage of 1.26. U43C U49A A64G gave a self-cleavage of 0.63. U43C U49C A67G A114G gave a self-cleavage of 0.74. U43C U57C A64G A94U gave a self-cleavage of 2.48. Variant U43C U72A U108A A117U has a self-cleavage of 0. Variant U43C U72C A98G has a self-cleavage of 0.1. For U43C U87C A134G, the self-cleavage was 1.31. Work on U43C U87C U108A yielded a self-cleavage of 0.01. U43C U87C U127G G138C gave a self-cleavage of 0.93. In the case of U43C U87G U132C, the self-cleavage is reported as 0.46. Variant U43C U100C U103C A110G has a self-cleavage of 0.12. Variant U43C U103C G106A has a self-cleavage of 0.01. U43C U130C U132C showed a self-cleavage of 1.13. For U43G A52C A135G, the self-cleavage was 1.92. In the case of U43G A52G A86G U100A, the self-cleavage is reported as 0.71. For U43G A52G U97C C105U U132C, the self-cleavage was 0.16. U43G A54U A67G gave a self-cleavage of 2.65. In the case of U43G A56G A68U, the self-cleavage is reported as 1.7. With U43G A68G U100C the self-cleavage was 1.96. In the case of U43G C46U A116G, the self-cleavage is reported as 0.25. Work on U43G G48A A56G A67G U120A U127A yielded a self-cleavage of 0.94. Variant U43G U49A A64G A67U has a self-cleavage of 1.93. With U43G U108C A125G the self-cleavage was 0.02. G44A A51G A66G gave a self-cleavage of 0.89. With G44A A52U A62U A116G U131C the self-cleavage was 1.16. In the case of G44A A54G A56U A64G A116G, the self-cleavage is reported as 0.31. Work on G44A A62G A78G yielded a self-cleavage of 0.25. In the case of G44A A66G A111G, the self-cleavage is reported as 0.02. Variant G44A A67G A69G G93A has a self-cleavage of 0.66. G44A A78U U87A U120C gave a self-cleavage of 0.06. G44A A82G U87C U122A gave a self-cleavage of 0.25. Variant G44A A89U A114U has a self-cleavage of 0.09. Work on G44A A94C U122A yielded a self-cleavage of 0.96. G44A A94G C109A showed a self-cleavage of 0.19. Work on G44A A95G A114G yielded a self-cleavage of 0.42. Variant G44A U49A A118U has a self-cleavage of 0.64. Work on G44A U70C A78G yielded a self-cleavage of 0.33. For G44A U70C U87C U139G, the self-cleavage was 0.9. G44A U72A A91G gave a self-cleavage of 0.21. In the case of G44A U87A A96G, the self-cleavage is reported as 2.45. G44A U102C U108C A118G gave a self-cleavage of 0. With G44C A60G A66G A78U U131C the self-cleavage was 0.08. G44C A110C A116G showed a self-cleavage of 0.18. G44C U49C A78G showed a self-cleavage of 0.17. Work on G44U A56G A63G U120C yielded a self-cleavage of 0.43. G44U A91G A95G A134U showed a self-cleavage of 0.13. Work on G44U U122C U132C yielded a self-cleavage of 0.82. Variant C45A A52U A56G U130A has a self-cleavage of 0.75. Variant C45U A47C A89U has a self-cleavage of 2.06. C45U A47G A96G showed a self-cleavage of 1.57. C45U A51G U127G showed a self-cleavage of 0.43. In the case of C45U A56C G138A, the self-cleavage is reported as 0.65. Work on C45U A56G U124C yielded a self-cleavage of 1.44. C45U A96C U103G A129U gave a self-cleavage of 0. With C45U G115A A140G the self-cleavage was 0.3. C45U U49C U72C A82U A90G showed a self-cleavage of 0.14. Variant C45U U72A A95G has a self-cleavage of 0.16. With C46A A82G A118G U131C the self-cleavage was 0.21. C46A G73A U108C A118G gave a self-cleavage of 0.02. Work on C46A U49C A89G U131C yielded a self-cleavage of 1. With C46G A56G A66G the self-cleavage was 0.4. C46G U102C A118U showed a self-cleavage of 0.98. Variant C46U A51G A60G A95U A117U U122C has a self-cleavage of 0.86. C46U A51U A62G A117U gave a self-cleavage of 1.56. In the case of C46U A54G A90G, the self-cleavage is reported as 1.5. For C46U A55G A110G, the self-cleavage was 0.07. Variant C46U A60C U72A has a self-cleavage of 0.45. Variant C46U A60U A111U has a self-cleavage of 0.13. Variant C46U A62U A86G has a self-cleavage of 1.23. C46U A64G A116C showed a self-cleavage of 0.13. Work on C46U A64G A116G U122C yielded a self-cleavage of 0.78. For C46U A67G A95G U130C, the self-cleavage was 1.15. C46U A95G U108C showed a self-cleavage of 0.02. With C46U A98G A114G the self-cleavage was 0.11. For A47C A54G G80A A94G, the self-cleavage was 0.18. Work on A47C A59G U131C yielded a self-cleavage of 1.35. A47C A62U A92G gave a self-cleavage of 1.66. Variant A47C A78G A86G A92G has a self-cleavage of 0.07. Variant A47C A92G A114G has a self-cleavage of 0.68. In the case of A47C G48U A95C, the self-cleavage is reported as 0.46. For A47C U70C A86G, the self-cleavage was 1.03. A47C U103A A126G U130C gave a self-cleavage of 0.04. Work on A47C U108C U122C A129G yielded a self-cleavage of 0.01. A47G A51G A66G U122C showed a self-cleavage of 1.45. With A47G A51G A94G the self-cleavage was 0.47. In the case of A47G A51G C88U, the self-cleavage is reported as 1.49. For A47G A51U A69U, the self-cleavage was 2.17. Work on A47G A51U A98G yielded a self-cleavage of 0.37. With A47G A52G A67G A86G the self-cleavage was 0.93. A47G A52G A91G gave a self-cleavage of 0.47. A47G A52G U70C A92U U132C showed a self-cleavage of 0.49. With A47G A52G U72C A116G the self-cleavage was 0.08. In the case of A47G A54G A96G, the self-cleavage is reported as 0.84. A47G A54G U72C gave a self-cleavage of 0.22. With A47G A54G U122A A126U the self-cleavage was 0.45. With A47G A55C A69U C77U A78G A82G U108C A116G U132A the self-cleavage was 0.01. For A47G A55G U87A, the self-cleavage was 1.19. In the case of A47G A55G U87C A114G, the self-cleavage is reported as 0.14. In the case of A47G A56G A86G A111G U131C, the self-cleavage is reported as 0. A47G A56G A94G A96G gave a self-cleavage of 1.35. Work on A47G A56G A95G yielded a self-cleavage of 2.02. A47G A56G C107U showed a self-cleavage of 0.
